From the supplement of paper PMC8728848
Some of the results follow.

Tests used:
Assay in all cases: glycan array binding signal (z-score within array); higher = stronger binding
Settings in all cases: glycan notation: IUPAC condensed, linker removed; mutation: D325N
GlcNAc(b1-6)GalNAc = target: GlcNAc(b1-6)GalNAc
In short: (§1)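 Glycan array data were curated from 3228 arrays in the Consortium for Functional Glycomics database and kept only where the protein sequence was available. Glycan names were converted to IUPAC-condensed notation, and columns mapping to the same glycan were averaged. The binding signal is a within-array Z-score, averaged across arrays of the same protein sequence at different concentrations or buffers and across linkers. Negative Z-scores can be read as non-binding.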

GlcNAc3Prop(b1-4)GlcNAc = target: GlcNAc3Prop(b1-4)GlcNAc
In short: as §1

Kdn(a2-3)Gal(b1-3)GlcNAc = target: Kdn(a2-3)Gal(b1-3)GlcNAc
In short: as §1

Kdn(a2-3)Gal(b1-4)GlcNAc = target: Kdn(a2-3)Gal(b1-4)GlcNAc
In short: as §1

[1] = target: Man(a1-2)Man(a1-2)Man(a1-3)Man
In short: as §1

[2] = target: Man(a1-2)Man(a1-2)Man(a1-6)[Man(a1-3)]Man
In short: as §1

Man(a1-2)Man(a1-3)Man = target: Man(a1-2)Man(a1-3)Man
In short: as §1

[3] = target: Man(a1-2)Man(a1-3)[Man(a1-2)Man(a1-6)]Man
In short: as §1

[4] = target: Man(a1-2)Man(a1-3)[Man(a1-2)Man(a1-6)]Man(a1-6)[Man(a1-2)Man(a1-2)Man(a1-3)]Man
In short: as §1

[5] = target: Man(a1-2)Man(a1-3)[Man(a1-2)Man(a1-6)]Man(a1-6)[Man(a1-2)Man(a1-2)Man(a1-3)]Man(b1-4)GlcNAc(b1-4)GlcNAc
In short: as §1

[6] = target: Man(a1-2)Man(a1-3)[Man(a1-6)]Man(a1-6)[Man(a1-2)Man(a1-3)]Man(b1-4)GlcNAc(b1-4)GlcNAc
In short: as §1

[7] = target: Man(a1-2)Man(a1-6)[Man(a1-3)]Man(a1-6)[Man(a1-2)Man(a1-2)Man(a1-3)]Man
In short: as §1

[8] = target: Man(a1-2)Man(a1-6)[Man(a1-3)]Man(a1-6)[Man(a1-2)Man(a1-2)Man(a1-3)]Man(b1-4)GlcNAc(b1-4)GlcNAc
In short: as §1

Man(a1-3)[Man(a1-6)]Man = target: Man(a1-3)[Man(a1-6)]Man
In short: as §1

[9] = target: Man(a1-3)[Man(a1-6)]Man(a1-6)[Man(a1-2)Man(a1-3)]Man(b1-4)GlcNAc(b1-4)GlcNAc
In short: as §1

[10] = target: Man(a1-3)[Man(a1-6)]Man(a1-6)[Man(a1-3)]Man
In short: as §1

[11] = target: Man(a1-3)[Man(a1-6)]Man(a1-6)[Man(a1-3)]Man(b1-4)GlcNAc(b1-4)GlcNAc
In short: as §1

[12] = target: Man(a1-3)[Man(a1-6)]Man(b1-4)GlcNAc(b1-4)GlcNAc
In short: as §1

Man(a1-6)Man = target: Man(a1-6)Man
In short: as §1

Man(b1-4)GlcNAc = target: Man(b1-4)GlcNAc
In short: as §1

Neu5Ac(a2-3)Gal = target: Neu5Ac(a2-3)Gal
In short: as §1

[13] = target: Neu5Ac(a2-3)Gal(b1-3)GalNAc
In short: as §1

[14] = target: Neu5Ac(a2-3)Gal(b1-3)GalNAc(b1-3)Gal(a1-4)Gal(b1-4)Glc
In short: as §1

[15] = target: Neu5Ac(a2-3)Gal(b1-3)GalNAc(b1-3)Gal(b1-4)GlcNAc
In short: as §1

[16] = target: Neu5Ac(a2-3)Gal(b1-3)GalNAc(b1-4)[Neu5Ac(a2-3)]Gal(b1-4)Glc
In short: as §1

[17] = target: Neu5Ac(a2-3)Gal(b1-3)GalNAc6S
In short: as §1

[18] = target: Neu5Ac(a2-3)Gal(b1-3)GlcNAc
In short: as §1

[19] = target: Neu5Ac(a2-3)Gal(b1-3)GlcNAc(b1-3)Gal(b1-3)GlcNAc
In short: as §1

[20] = target: Neu5Ac(a2-3)Gal(b1-3)GlcNAc6S
In short: as §1

[21] = target: Neu5Ac(a2-3)Gal(b1-3)[Fuc(a1-4)]GlcNAc
In short: as §1

[22] = target: Neu5Ac(a2-3)Gal(b1-3)[Fuc(a1-4)]GlcNAc(b1-3)Gal(b1-4)[Fuc(a1-3)]GlcNAc
In short: as §1

[23] = target: Neu5Ac(a2-3)Gal(b1-3)[Neu5Ac(a2-3)Gal(b1-4)]GlcNAc
In short: as §1

[24] = target: Neu5Ac(a2-3)Gal(b1-3)[Neu5Ac(a2-6)]GalNAc
In short: as §1

Neu5Ac(a2-3)Gal(b1-4)Glc = target: Neu5Ac(a2-3)Gal(b1-4)Glc
In short: as §1

[25] = target: Neu5Ac(a2-3)Gal(b1-4)GlcNAc
In short: as §1

[26] = target: Neu5Ac(a2-3)Gal(b1-4)GlcNAc(b1-2)Man(a1-3)[GlcNAc(b1-2)Man(b1-4)GlcNAc(b1-2)Man(a1-6)]Man(b1-4)GlcNAc(b1-4)GlcNAc
In short: as §1

[27] = target: Neu5Ac(a2-3)Gal(b1-4)GlcNAc(b1-2)Man(a1-3)[Neu5Ac(a2-6)Gal(b1-4)GlcNAc(b1-2)Man(a1-6)]Man(b1-4)GlcNAc(b1-4)GlcNAc
In short: as §1

[28] = target: Neu5Ac(a2-3)Gal(b1-4)GlcNAc(b1-3)Gal(b1-3)GlcNAc
In short: as §1

[29] = target: Neu5Ac(a2-3)Gal(b1-4)GlcNAc(b1-3)Gal(b1-4)GlcNAc
In short: as §1

[30] = target: Neu5Ac(a2-3)Gal(b1-4)GlcNAc(b1-3)Gal(b1-4)GlcNAc(b1-3)Gal(b1-4)GlcNAc
In short: as §1

[31] = target: Neu5Ac(a2-3)Gal(b1-4)GlcNAc(b1-3)Gal(b1-4)[Fuc(a1-3)]GlcNAc
In short: as §1

[32] = target: Neu5Ac(a2-3)Gal(b1-4)GlcNAc(b1-6)[Gal(b1-3)]GalNAc
In short: as §1

[33] = target: Neu5Ac(a2-3)Gal(b1-4)GlcNAc(b1-6)[Neu5Ac(a2-3)Gal(b1-3)]GalNAc
In short: as §1

[34] = target: Neu5Ac(a2-3)Gal(b1-4)GlcNAc6S
In short: as §1

B1: Surfactant Protein D (Human); Neck + Carbohydrate Recognition Domain (NCRD) (Homo sapiens) (protein)
chain: MLLFLLSALVLLTQPLGYLEAEMKTYSHRTMPSACTLVMCSSVESGLPGRDRDGREGPRGEKGDPGLPGAAGQAGMPGQAGPVGPKGDNGSVGEPGPKGDTGPSGPPGPPGVPGPAGREGALGKQGNIGPQGKPGPKGEAGPKGEVGAPGMQGSAGARGLAGPKGERGVPGERGVPGNTGAAGSAGAMGPQGSPGARGPPGLKGDKGIPGDKGAKGESGLPDVASLRQQVEALQGQVQHLQAAFSQYKKVELFPNGQSVGEKIFKTAQFVKPFTEAQLLCTQAGGQLASPRSAAENAALQQLVVAKNEAAFLSMTDSKTEGKFTYPTGESLVYSNWAPGEPNDNGGSEDCVEIFTNGKWNDRACGEKRLVVCEF
glycan array binding signal (z-score) (GlcNAc(b1-6)GalNAc): -0.156 | glycan array binding signal (z-score) (GlcNAc3Prop(b1-4)GlcNAc): -0.093 | glycan array binding signal (z-score) (Kdn(a2-3)Gal(b1-3)GlcNAc): -0.148 | glycan array binding signal (z-score) (Kdn(a2-3)Gal(b1-4)GlcNAc): -0.172 | glycan array binding signal (z-score) [1]: 2.18 | glycan array binding signal (z-score) [2]: 0.416 | glycan array binding signal (z-score) (Man(a1-2)Man(a1-3)Man): -0.133 | glycan array binding signal (z-score) [3]: 1.77 | glycan array binding signal (z-score) [4]: 9.38 | glycan array binding signal (z-score) [5]: -0.103 | glycan array binding signal (z-score) [6]: 0.891 | glycan array binding signal (z-score) [7]: 8.54 | glycan array binding signal (z-score) [8]: 0.207 | glycan array binding signal (z-score) (Man(a1-3)[Man(a1-6)]Man): -0.142 | glycan array binding signal (z-score) [9]: 0.79 | glycan array binding signal (z-score) [10]: 11.2 | glycan array binding signal (z-score) [11]: 0.338 | glycan array binding signal (z-score) [12]: 0.376 | glycan array binding signal (z-score) (Man(a1-6)Man): -0.118 | glycan array binding signal (z-score) (Man(b1-4)GlcNAc): -0.119 | glycan array binding signal (z-score) (Neu5Ac(a2-3)Gal): -0.155 | glycan array binding signal (z-score) [13]: -0.136 | glycan array binding signal (z-score) [14]: -0.132 | glycan array binding signal (z-score) [15]: -0.122 | glycan array binding signal (z-score) [16]: -0.132 | glycan array binding signal (z-score) [17]: -0.129 | glycan array binding signal (z-score) [18]: -0.127 | glycan array binding signal (z-score) [19]: -0.113 | glycan array binding signal (z-score) [20]: -0.148 | glycan array binding signal (z-score) [21]: -0.133 | glycan array binding signal (z-score) [22]: -0.111 | glycan array binding signal (z-score) [23]: -0.151 | glycan array binding signal (z-score) [24]: -0.14 | glycan array binding signal (z-score) (Neu5Ac(a2-3)Gal(b1-4)Glc): -0.151 | glycan array binding signal (z-score) [25]: -0.136 | glycan array binding signal (z-score) [26]: -0.063 | glycan array binding signal (z-score) [27]: -0.137 | glycan array binding signal (z-score) [28]: -0.126 | glycan array binding signal (z-score) [29]: -0.151 | glycan array binding signal (z-score) [30]: -0.151 | glycan array binding signal (z-score) [31]: -0.121 | glycan array binding signal (z-score) [32]: -0.145 | glycan array binding signal (z-score) [33]: -0.14 | glycan array binding signal (z-score) [34]: -0.132
